This note sets out measurements from the RNAGym collection of RNA variant scans (doi:10.1093/nar/gkz1192).

B1: CPEB3 Ribozyme (parent)
chain: UAACAGGGGGCCACAGCAGAAGCGUUCACGUCGCAGCCCCUGUCAGAUUCUGGUGAAUCUGCGAAUUCUGCUGUAUAUCUC

The source gives no read counts; variants with many changes may rest on few reads.

The data set covers variants of B1. Description: self-cleavage, relative activity (ratio to wild type); higher = more cleavage; in vitro, sequencing. A digest of the protocol: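 CPEB3 self-cleaving ribozyme mutant libraries were made by rounds of error-prone PCR, barcoded, and transcribed in vitro with T7 RNA polymerase for 5 hours at 37°C. Cleavage occurred during transcription and a 15 min DNase I step before EDTA stop. RNAs were reverse transcribed with template switching and Illumina-sequenced, with DNA sequencing mapping barcodes to variants. Relative activity is the variant's cleaved/total read fraction divided by wild type's (minimum 5 reads), averaged across three batches.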
Turning to UAACAGGGGGCCACAGCAGUAGCGUUCACGCCGCCGCCCCUGUCAGAUUCUGGUGAAUCUGCGAAUUCUGCUGUAUAUCUC [A20U U31C A35C], the self-cleavage is 0.21.

For the variant UAACAGGGGGCCACAGCAGACGCGUUCACGUCGCAGCCCCUGUCAGACUCUGGUGUAUCCGCGAAUUCUGCUGUCUAUGUC [A21C U48C A56U U60C A75C C79G], the self-cleavage turned out to be 0.07.

On to UAACAGGGGGCCACAGCAGUAGCGUUCACGUCGCAGCCCCUGUCAGACUCUGGUGAAUCUGCGAACUCUGCCGUAUCUCCC [A20U U48C U66C U72C A77C U80C], for which the self-cleavage is 0.09.

Consider UAACAGGGGGCCACAGCAGUAGCGUUCACGUCGCAGCCCCAGUCAGAUUCUGUUGAAUCUGCGAAUUCUGCUGUAUAUCUC [A20U U41A G53U], for which the self-cleavage was found to be 0.23.

Consider UAACAGGGGGCCACAGCAGACGCGUUCACGUCGCAGCCCCGGUCAGAUUCUGGUGAAUCCGCGAAUUCUGAUGUAUAUCUC [A21C U41G U60C C71A], for which the self-cleavage amounted to 0.07.

On to UAACAGGGGGCCACAGCAGUAGCGUACACGUCGCAGCCCCUGUCGGAUUCUGGUGAAUCUGCGUAUUCUGCUGUAUAUCUC [A20U U26A A45G A64U], for which the self-cleavage turned out to be 0.09.

As for UAACAGGGGGCCACAGCAGUAGCGUUCACGUCGCAGCCCCUGUCAGAUUCUGGCGAAUCUGCGAGUUCUGCUGUAUAUCUC [A20U U54C A65G], the self-cleavage was determined as 0.13.

Take UAACAGGGGGCCACAGCAGACGCGCUCACGACGCAGCCCCUGUCAGAUUCUGGUGAAUCUGCGAAUUCUGCUGUAUAUCUC [A21C U25C U31A]: the self-cleavage was determined as 0.08.

Turning to UAACAGGGGGCCACAGCAGUAGCGUUCACGUCGCAGCCCCUGCCAGAUUCCGGUGAAUCUGCGAAAUCUGCUGUAUAUCUC [A20U U43C U51C U66A], the self-cleavage was determined as 0.18.

UAACAGGGGGCCACAGCAGUAGCGUUCACGCCGCAGCCCCUGUCAGAUUCCGGUGAAUCUGCGAAUUCAGCUAUAUAUCUC [A20U U31C U51C U69A G73A]: the self-cleavage was 0.17.

As to UAACAGGGGGCCACAGCAGUAGCGUACACGUCGCAGCCCCUGUCAGAUUCUGGUGAAUCUGCGAAGUCUGCUGUAUAUCUC [A20U U26A U66G], the self-cleavage was found to be 0.52.

Consider UAACAGGGGGCCACAGCAGUAGCGUUCACGUCGCAGCCCCCGACGGAUUCUGGUGAAUAUGCGAAUUCUGCCGUAUAUCUC [A20U U41C U43A A45G C59A U72C], for which the self-cleavage stood at 0.09.

Turning to UAACAGGGGGCCACAGCAGACGCGUCCACGUCACAGCCCCCGUCAGAUUCUGGUGAAUCUGCGAAUUCUGCUGUAUAUCUC [A21C U26C G33A U41C], the self-cleavage was 0.14.

Regarding UAACAGGGGGCCACAGCAGUAGCGUUCACGGCGCAGCCCCUGUCAGAUUCUGGUGAAUCCGCGAAUUCUGCUGUAUGUCUC [A20U U31G U60C A77G], the self-cleavage amounted to 0.07.

Turning to UAACAGGGGGCCACAGCAGACGCGUUCACGUCGCAGCCCCUGUUAGAUUCUGGUGAAUCCGCGAAUUCUGCUGCAUAUCUC [A21C C44U U60C U74C], the self-cleavage was found to be 0.16.

Consider UAACAGGGGGCCACAGCAGUAGCGUUCACGUCGCAGCCCCAGUCAGAUUCUGGUGAAUCUGGGAAUUCUGCUGGAUAUCUC [A20U U41A C62G U74G], for which the self-cleavage was 0.13.

As for UAACAGGGGGCCACAGCAGACGCGUACACGUCGCAGCCCCUGCCAGAUUCUGGUGUAUCUGCGAAUUCUGCUGUAUGUCCC [A21C U26A U43C A56U A77G U80C], the self-cleavage was found to be 0.05.

As to UAACAGGGGGCCACAGCAGUAGCGUUCACGUCGCAGCCCCUGUCAGAUUCUGGUGAAUCUGCGAAUUCUGCUGAAUAACUC [A20U U74A U78A], the self-cleavage was 0.41.

Turning to UAACAGGGGGCCACAGCAGUAGCGUUCACGUCGCAGCCCCUGUCAGACUCAGGUGAGUCUGCGUAUUCUGCUGUAUAUCUC [A20U U48C U51A A57G A64U], the self-cleavage was 0.11.

With UAACAGGGGGCCACAGCAGACGCGUUCACGUCGCAGCCCCUGCCAGAUUCUGGUGAAUCUGCGAUUUCUGCUGUACAUCUC [A21C U43C A65U U76C], the self-cleavage was 0.06.

For UAACAGGGGGCCACAGCAGACGCGUUCACGUCGCAGCCCCUGUCAGAUUAUGGUGUAUCUGCGAACUUUGCUGUUUAUCUC [A21C C50A A56U U66C C68U A75U], the self-cleavage is 0.04.

Consider UAACAGGGGGCCACAGCAGUAGCGUCCGCGUCUCAGCCCCUGUCAGAUUCUGGUGAACCUGCGAAUUCUGCUGUAUAUCCC [A20U U26C A28G G33U U58C U80C], for which the self-cleavage was determined as 0.06.

Regarding UAACAGGGGGCCACAGCAGAGGCGUUCCCGUCGCAGCCCCUGUCAGAUUCUGGUGAAUCUGCGAAUUCUGCUGUAUAUCCC [A21G A28C U80C], the self-cleavage stood at 0.42.

For the variant UAACAGGGGGCCACAGCAGUAGCGUUCACGCCGCAGCCCCUGUCAGAUUCUGGUGAAUCUGCGAAUUUCGCUGUAUAUCUC [A20U U31C C68U U69C], the self-cleavage worked out at 0.31.

With UAACAGGGGGCCACAGCAGUAGCGUUCACGCCGCAGCCCCUGUCAGAUUCUGGUGAAUCUGCGAAUUCUGCUGUAGAUCUC [A20U U31C U76G], the self-cleavage was found to be 0.13.

As for UAACAGGGGGCCACAGCAGAGGCGUUCGCGUCGCAGCCCCUGUCAGAUUCUGGUGUAUCAGCGAACUCUGCUGUGUAUCUC [A21G A28G A56U U60A U66C A75G], the self-cleavage worked out at 0.05.

As to UAACAGGGGGCCACAGCAGUAGCGUUCACGUCGCAGCCCCUGUCAGAUUCCGGUGAAUCUGCGAAUUCAGCUGUAUAUCUC [A20U U51C U69A], the self-cleavage was 0.3.

As for UAACAGGGGGCCACAGCAGUAGCGUUCACGUCGCAGCCCCUGUCAGAUCCUGGUGAAUCUGCGAAUUCUGCGGUAUAUCUC [A20U U49C U72G], the self-cleavage came to 0.13.

Take UAACAGGGGGCCACAGCAGUAGCGUUCACGUCGCAGCCCCUGUCAGAUUCUGGUGAACCUGCGAACUCUGCUGUAUAUCUC [A20U U58C U66C]: the self-cleavage worked out at 0.13.

Turning to UAACAGGGGGCCACAGCAGAGGCGUUCGCGCCGCAGCCCCUGUCAGAUUCUGGUGUAUCUGCGAGUUCUGCUGUAUAUCUC [A21G A28G U31C A56U A65G], the self-cleavage was 0.12.

In the case of UAACAGGGGGCCACAGCAGUAGCGCUCACGUCGCAGCCCCUGUCAGACUCUGGUGAAUCUGCGAAUUCUGCUGUAUAUCUC [A20U U25C U48C], the self-cleavage is 0.1.

In the case of UAACAGGGGGCCACAGCAGUAGCGUUCACGUCGCAGCCCCCGUCGGAUUCUGGUGAAUCUGCGAAUUCUGCUGCAUAUCUC [A20U U41C A45G U74C], the self-cleavage was determined as 0.22.

For the variant UAACAGGGGGCCACAGCAGUAGCGUUCACGUCGCAGCCCCUGCCAGAUUCUGGUGAAUCUGCGAAUUCAGCUCAAUAUCUC [A20U U43C U69A G73C U74A], the self-cleavage came out at 0.13.

As to UAACAGGGGGCCACAGCAGUAGCGUUCACGCCGCAGCCCCUGUCAGAUUCUGGUGUAUCUGCGAAUUCUGCAGUAUAUCCC [A20U U31C A56U U72A U80C], the self-cleavage turned out to be 0.07.
